Measurements published in PubChem BioAssay (NCATS).
“And” between values parts separate entries of the source, which are not always exact repeats. Equal entries are not always repeated. The shares of active, inactive and inconclusive entries below differ from those in the screen. Potencies of inconclusive entries are doubtful fits and often do not repeat. The source made the active and inactive calls. Calls come from the whole dose curve; as a rule, active = well fitted curve in the direction sought with a large enough effect; inconclusive = small, poorly fitted or top-dose-only effect, or another doubt; inactive = no such curve, though single readings can be large; an effect the other way counts as inactive or inconclusive.

Experiments:
[1] = qHTS for Inhibitors of Plasmodium falciparum (DD2) proliferation (AID 504314);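 for activity, negative = inhibition: parasite DNA measured by SYBR Green fluorescence after red cell lysis; plate controls were DMSO vehicle for no effect and artemisinin wells for full effect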; details: P. falciparum Dd2 in erythrocytes, SYBR Green growth, 72 h; activity, negative = inhibition: at 6.11 µM (top of the series)
In short: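 SYBR Green growth assay: 72 h compound exposure of infected red cells (2.5% hematocrit, 0.3% parasitemia), then lysis and overnight dye staining, fluorescence 485/535 nm. Values scaled between DMSO and 0.29 uM artemisinin controls.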

[2] = qHTS for Inhibitors of Plasmodium falciparum (GB4) proliferation (AID 504315); note: nearly all actives have a fitted effect of over 50% in size;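 for activity change, negative = inhibition: 0% = DMSO vehicle and -100% = 0.29 µM artemisinin control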; details: P. falciparum GB4 in erythrocytes, SYBR Green DNA, 72 h; activity change, negative = inhibition: at 6.7 µM (top of the series)
In short: (§1)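 Parasite growth measured as SYBR Green DNA fluorescence (ex 485, em 535 nm) after overnight lysis following 72 h culture at 37 °C, 0.3% parasitemia, 2.5% hematocrit. Values normalized against DMSO and 0.29 uM artemisinin controls, with plate-stack correction.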

[3] = qHTS for Inhibitors of Plasmodium falciparum (7G8) proliferation (AID 504316); note: nearly all actives have a fitted effect of over 65% in size;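 for activity change, negative = inhibition: 0% = DMSO vehicle and -100% = 0.29 µM artemisinin full kill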; details: P. falciparum 7G8 in erythrocytes, SYBR Green DNA, 72 h; activity change, negative = inhibition: at 6.7 µM (top of the series)
In short: as §1

[4] = qHTS for Inhibitors of Plasmodium falciparum (HB3) proliferation (AID 504318); note: nearly all actives have a fitted effect of over 60% in size;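 for activity change, negative = inhibition: 0% = DMSO vehicle and -100% = artemisinin control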; details: P. falciparum HB3 in erythrocytes, SYBR Green DNA, 72 h; activity change, negative = inhibition: at 7.21 µM (top of the series)
In short: as §1
Potency is the fitted concentration of half-maximal effect; tags give direction and shape of the fitted curve.

SMILES	Potency [1]	Potency [2]	Potency [3]	Potency [4]	activity, negative = inhibition [1]
O=C1OC2(CCCCC2)CC2=C1[C@H]1O[C@](c3ccsc3)(Cc3ccccc31)O2	inactive	inconclusive: 601 nM [inhibitor, partial curve, poor fit]	inactive	inactive	–
COc1ccc([C@]23Cc4cc(OC)c(OC)cc4[C@H](O2)C2=C(CC(C)(C)CC2=O)O3)cc1	inconclusive: 1500 nM [inhibitor, single point]	inactive	inconclusive: 4260 nM [inhibitor, single point]	inconclusive: 0.757 µM [inhibitor, partial curve, poor fit]	–
N#Cc1ccc2c(c1)C[C@]1(CCCCN3C(=O)c4ccccc4C3=O)Oc3c(c(=O)oc4ccccc34)[C@H]2O1	inconclusive: 1890 nM [inhibitor, single point]	inconclusive: 1510 nM [inhibitor, partial curve]	active: 1510 nM	inconclusive: 1.69 µM [inhibitor, partial curve]	–
C[C@@H]1[C@@H](c2ccccc2)c2cc3ccccc3nc2-c2nc3ccccc3cc2[C@H]1C(=O)N1CCCC1	inconclusive: 3780 nM [inhibitor, single point]	inconclusive: 1510 nM [inhibitor, single point]	inconclusive: 675 nM [inhibitor, single point]	inconclusive: 1.51 µM [inhibitor, single point]	–
CCN1C(N(C)CCc2c[nH]c3ccccc23)=NC(c2cccc(C(F)(F)F)c2)C(C(=O)OC)=C1C (centres undefined)	inconclusive: 4240 nM [inhibitor, single point]	inconclusive: 4260 nM [inhibitor, single point]	inconclusive: 675 nM [inhibitor, partial curve, poor fit]	inactive	–
COc1ccc(O[C@H]2C=C[C@@H](c3ccccc3)O[C@H]2CON=C(C)CCN2CCCCc3nc(C)c(C)cc32)cc1	inconclusive: 3780 nM [inhibitor, single point]	inconclusive: 1070 nM [inhibitor, partial curve]	active: 1510 nM	inconclusive: 1.9 µM [inhibitor, single point]	–
C[C@H]1[C@@H](C(=O)N2CCCC2)CC(=NOCc2ccccc2)C(=NOCc2ccccc2)C[C@H]1c1ccccc1	inconclusive: 1890 nM [inhibitor, partial curve]	inconclusive: 2130 nM [inhibitor, single point]	active: 478 nM	active: 1.69 µM	–
COc1ccc(-c2nc3c(c4c2C[C@H](c2ccccc2)OC4)CN(C(=O)N[C@@H](C)c2ccccc2)CC3)c(C)c1	inconclusive: 3780 nM [inhibitor, single point]	inconclusive: 2390 nM [inhibitor, single point]	active: 1690 nM	inconclusive: 2.33 µM [inhibitor, partial curve] and inconclusive: 2.13 µM [inhibitor, single point]	–
COC(=O)C1=C(C(=O)OC)[C@@H]2N(Cc3ccccc3)c3ccccc3[C@@]23C[C@@H](C(=O)OC)N(C(=O)CC(C)C)C3=N1	–	inconclusive: 4780 nM [inhibitor, partial curve, poor fit]	inconclusive: 2130 nM [inhibitor, partial curve]	inconclusive: 1.2 µM [inhibitor, partial curve]	inactive: -0.136% [at 1.12 µM]
C[C@H]1C[C@@H](C)O[C@@]2(C1)C(=O)N(Cc1ccc(F)cc1)c1ccccc12	inconclusive: 4240 nM [inhibitor, single point]	inconclusive: 4260 nM [inhibitor, partial curve, poor fit]	inconclusive: 757 nM [inhibitor, single point]	inactive	–
O=C1N(Cc2ccccc2C(F)(F)F)c2ccccc2[C@@]12O[C@H](COc1ccccc1)CC1=C2CCC1	inconclusive: 4240 nM [inhibitor, single point]	inconclusive: 1510 nM [inhibitor, single point]	inconclusive: 426 nM [inhibitor, single point]	inconclusive: 2.13 µM [inhibitor, single point]	–
